Laboratory results: the supplement of paper PMC3334620
Whole data set: some 33,000 sequences, median “E-score (-0.5 to 0.5)” near -0.01, cut for the highest 2% near 0.26. The list shows a part of the results.

Target: Ste12 (UniProt P13574)
Assay: PBM E-score (8-mer binding enrichment) (E-score (-0.5 to 0.5)); higher = stronger / more preferred TF binding; most listed sequences are background and not binding sites
Settings: protein concentration: 200 nM; construct: GST-DNA-binding domain
How it was run: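 Universal all-10-mer Agilent arrays, fresh or stripped once, were converted to double-stranded form by primer extension. GST-tagged yeast transcription factors from PURExpress in vitro transcription/translation, full-length or DNA-binding domain only, were applied at about 100-200 nM and detected with fluorescent anti-GST. After masliner normalisation, the Universal PBM Analysis Suite scored each ungapped eight-base word together with its reverse complement by E-score.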

Sequence	PBM E-score
CAGTCAGG	-0.0865
CTACTGCA	-0.283
ATCACTGA	-0.00791
ATCGTCAG	-0.146
AATAGACG	-0.0669
ATTGTGAG	-0.0545
ACGCCAAT	0.125
CCTCGCAG	-0.00708
CCCTCATC	-0.0291
CTGTAAAG	-0.0336
CATGCGAA	0.0971
CCGTGGAG	-0.132
CCTGCCCA	-0.0543
CAGTCCGA	-0.163
AAGCCGAT	0.211
GGCCCAGA	-0.214
TTACAAAA	0.301
ATAATCAC	0.0891
CCTCTGAA	-0.00449
GGTATGAC	-0.0173
ATATGTTC	0.178
CCTCGTCC	-0.0707
CCGTGCTC	0.0452
GCCCCACC	0.266
AGTGGCCC	-0.0466

Sequence	PBM E-score
CAATCCGA	0.0925
AGCCTAAC	-0.0097
AAAGAATG	0.159
GACCTGGA	-0.0741
AACCTCCT	-0.0887
GGACTAAC	-0.113
CAGTCGAG	-0.251
ACATAAAT	0.195
AGGTCATA	-0.0555
CCAGTGCA	-0.246
CCGAGCTC	0.0232
AGCAACAT	-0.0522
ACTACCCA	-0.0308
CCTGCGGC	-0.189
AAACCACC	0.219
AGAAGATC	-0.0265
CCCCGGGA	0.0622
GCTCTAGA	-0.227
ATGGACGA	0.116
CTACTTGA	-0.014
ATGTGGAC	-0.14
CAGATCCC	0.057
ATAAGATC	0.0331
CACAACCG	0.222
GGCAGCCA	0.0916

Sequence	PBM E-score
CCTTCTTA	-2e-05
GAATATCA	0.0514
CGTGAAGA	-0.206
CTGGACGC	-0.207
GGACCGGA	0.0141
AGGACCGG	-0.188
ACCGGGAG	-0.0767
ATGTCTCC	-0.0509
TAACACTA	0.171
ACCAAAAC	0.235
TGAGATAA	0.0769
GACGAGCA	-0.0774
ACGACAGA	0.00071
GTGGAATA	0.147
ACTCCGCG	-0.0382
CATGCTGG	-0.164
CTCTGATC	-0.00186
ATCCAAGA	0.136
CGCCAAAA	0.227
ACTTCGAC	0.195
CATTCTTA	0.0613
AGGAACTG	-0.0358
ACCGCCAA	0.056
ACCGGCGC	0.197
ATGTTGTG	-0.00637

Sequence	PBM E-score
GCGTAGAC	-0.262
CTGTTACC	-0.03
TATTCCAA	0.0783
TCGACCAA	-0.111
GTGGCGTA	-0.136
ATGCGTCC	-0.126
ATAGTAAC	0.0842
GGACGCAA	-0.0696
GCGAGCTA	-0.0339
AGAGTAAA	0.0233
ACAGTCAA	-0.0061
ACGTTACT	0.0576
CATTGTCG	-0.021
TCAAAGCA	0.042
AACACAAA	0.112
TAACAGTA	0.164
CGCTACGA	0.0421
CGTGCCCC	-0.0701
CACAGGAG	0.0604
CTCGAACC	0.00272
CTGTGTGC	-0.185
ATTGTTTA	0.0651
GAACACTA	-0.13
AGGTATTG	0.0861
ACGACCTC	0.0198

Sequence	PBM E-score
CATTGTAG	0.194
CTTGTTCC	-0.0735
GAAACTAC	0.158
CCTCCAGC	-0.07
ATATACAT	0.00017
CGTGTCAG	0.133
AAATTCCT	-0.127
ATAGTTCG	0.0431
CTGTGAAA	0.322
CAGGCTAG	-0.117
ACGCACGA	0.132
ACGTGCCA	-0.145
GGACCGTA	-0.156
ATCGTCTG	-0.0282
CCCGCGGG	0.0996
GCACAGCA	-0.102
AACAACGT	0.0627
AGACGATC	-0.0937
ACTGGGAC	-0.0908
CCGGAGTA	-0.0488
CATACCAA	-0.0054
CTGCGTTC	-0.0369
GCACAGAA	0.0897
CATGCTAC	-0.185
AGGCCCAG	-0.0471

Sequence	PBM E-score
GATAGCCA	-0.119
CTGATAAA	0.144
ACTATATA	0.178
CCCGACCC	0.118
ACCGAGTC	-0.268
ACCGACAG	-0.0168
GGCGCCAA	0.0152
CGTCAGTC	-0.0824
AAGTTTCA	0.437
CGCACACA	-0.0256
GCTTGCTA	-0.0442
AGTTGAGA	0.0736
TATACTAA	-0.0408
ATATTCGG	0.0214
ATTTACGC	0.00034
GGCGGCCA	0.0282
AGAGTCAG	-0.0656
ATTGTGTA	0.274
AGCAGGAG	0.0105
AACAAAGG	0.188
CCGACTTA	-0.00776
CCACCACA	-0.0139
GTGTCGAA	0.0683
ACATATCT	0.0675
ACTTAGCC	-0.154

Sequence	PBM E-score
CGCTGTTA	0.124
AATGTGTG	0.177
CCTTGACA	-0.123
CTTTTTGA	0.176
AGTGGGTG	0.114
AACCCTGG	0.0636
AGGTACGA	-0.0493
GAAGCCAC	-0.108
AAACAGCT	0.0704
GAAGCAGA	-0.0485
GATGAATA	0.166
CATTGCCG	-0.0916
AGTAGACA	-0.143
CCCGTCAA	-0.146
CACACTTC	0.00873
AGATGATA	0.218
AACCTAAA	0.324
GCTACACA	-0.136
CTGGAAAC	0.14
ACCGGCAG	-0.125
AACGACTC	-0.153
CAGCGCGC	0.0555
